Reference: the supplement of paper PMC11417369
± gives the standard deviation of the averaged measurements. The list shows a part of the results.

tested on: PfAP2-EXP AP2 domain (GST-tagged); assay: gcPBM binding intensity (ln(normalized median fluorescence intensity)); higher = stronger DNA binding
Summary of the method: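 Alexa488 anti-GST antibody, scanned at 488 nm, detected GST-tagged P. falciparum DNA-binding domains that had been expressed in E. coli and incubated for 1 h on an Agilent 4 × 180k array. The array carried primer-extended double-stranded 36-bp intergenic genomic probes and negative controls. Binding intensity is the highest Masliner-normalised natural-log median intensity across replicate spots of either orientation of each probe.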

Sequence | gcPBM binding intensity (ln)
AACAAAAACACTTTTACACACATAAGTAAAATATAT [CACACA_site1994] | 8.58 ± 0.51
TACTTATTTAAAATAGTGCATGAATAGAAGATATAT [GTGCAC_site9756] | 8.71 ± 0.28
CACAAAGACACAAACACACACACACCCACATACATA [CACACA_site452] | 8.48 ± 0.52
ATTTCCCTATATAGAGCATGCACTATATTCAAATGA [TGCATGCA_site531] | 9.24 ± 0.3
GGTTCATATCTTAACACACACATACATATTATAGAT [CACACA_site7392] | 8.81 ± 0.43
ATACAAATATACTTTTGTACGAAGAAATATATATAT [XGTACX_site3912] | 9.3
ATACAATTTATTTTAACACACGAATGAATTGATTAT [CACACA_site4160] | 8.52 ± 0.39
ATAAAAAAAATAAAAAGTACAAAAAAAAAAAATGGA [XGTACX_site136] | 8.86 ± 0.61
TAAAGAAACTATTCAACACACGGTCTAATTATTACA [CACACA_site1064] | 8.31 ± 0.45
CAGGGCAGGGGGAAGGGTACACATAAAAGAAAATAA [XGTACX_site172] | 9.45 ± 0.23
TATTCTAAAGAAATTACACACATGCAATGAAAAAAA [CACACA_site6895] | 8.9 ± 0.37
AAAAATAAACGACAGTGTACTAAATATTTAATTTTC [XGTACX_site3580] | 8.72 ± 0.38
TATAAATATATATTTTGTACTTAATATAAATTTATA [XGTACX_site7996] | 8.33 ± 0.41
GAAAAAAGAAATTAAACATGCATCTGCAAATTTAAA [TGCATGCA_site974] | 8.34 ± 0.42
AATAATATTTAATACACACACCAGTTCTGCAAATTT [CACACA_site7712] | 8.8 ± 0.35
AATAGTAAAAGATATACACACACCAAAAAATATAAT [CACACA_site5293] | 9.02 ± 0.47
TGCTACATTTTATGTACACACATATACAGATATATA [CACACA_site4646] | 8.42 ± 0.26
TGAATAAATCAAAGCACACATACACCCACATATATA [CACACA_site286] | 8.78 ± 0.49
ACATAATAAAAATAAATTCATAAGTAAATAAATAAA [TGCATGCA_negctrl_site186] | 8.34 ± 0.44

Sequence | gcPBM binding intensity (ln)
CTAAAAAATAGTAAAAGTACATAAATAATTTTGCTT [XGTACX_site8919] | 8.28 ± 0.32
ACAATTATTTTGTTCTTTAATGGTAGGTTCTATGTC [CACACA_negctrl_site1419] | 8.51 ± 0.39
TTACACATGTTTAACTGTACACATAATAGCAATATT [XGTACX_site8545] | 8.98 ± 0.42
AATACACGCAGACACACACACACACGCACATATATA [CACACA_site6447] | 8.79 ± 0.53
CATAAATTACTTTTTACACACTAAAATAAAATACAA [CACACA_site1135] | 8.44 ± 0.47
AAAAAAAAAAAAAAAAAAAAAAAAAAAGATTATGAG [CACACA_negctrl_site1088] | 8.93 ± 0.085
TATAAAATACTGTATCGATGGGGGAGGGCGCAGGGG [TGCATGCA_negctrl_site250] | 10.3 ± 0.11
TCAAATGTATATAATTGTACTTATCCTTTTCATTTT [XGTACX_site4879] | 8.59 ± 0.42
AAAAATTAGAAACACACACACATATATATATATATT [CACACA_site1042] | 8.71 ± 0.22
TTTTAAGTTTTTGAATGTACGTAATTTGTAAATTCT [XGTACX_site2448] | 8.21 ± 0.23
TTACTTGTTTATTTTTTTTTTTTTTTTTTTTTTGTT [TGCATGCA_negctrl_site103] | 8.06 ± 0.77
TAATGGAGAAAATAATGTACTTAGATATTTGTTCTA [XGTACX_site6312] | 8.16 ± 0.36
TTTAAATATTTTATAGCATGCTACCAATATGTATAT [TGCATGCA_site291] | 8.86 ± 0.33
AAGAACAAACAAAATAGTACAATATATATATATATA [XGTACX_site4258] | 10 ± 0.28
AACTATAATTAAAGGATGCACTTGAAGGCATTTCAA [GTGCAC_site9689] | 8.34 ± 0.35
TATTCATAACAATGATGTACATATATTTTTTTTTTC [XGTACX_site5619] | 8.4 ± 0.47
CATATATAGATATATACACACATATAGATTTTCTTT [CACACA_site6797] | 8.31 ± 0.38
GACATATATAGCAATCGTACATATATTATAAAAGGT [XGTACX_site6891] | 9.32 ± 0.6
CGTTTGGTACACGTAGTGTTTTCGTTTGAATGTACC [GTGCAC_negctrl_site201] | 8.7 ± 0.36

Sequence | gcPBM binding intensity (ln)
TTTAATTTTCCCTTCACACATAATATATATCTGTAT [CACACA_site5370] | 8.7 ± 0.43
TTTAATCAATGATTTAATGAAAAAAGCAAAAAAAAA [GTGCAC_negctrl_site213] | 8.38 ± 0.45
AAAAGGAACAGACACACACACATATATAAATATGTA [CACACA_site7656] | 8.4 ± 0.59
AAATAGACATAAAAAGGTACACAAATTGTGTATTAA [XGTACX_site527] | 8.68 ± 0.36
TAACACTTTTTTTTTCGTACATATATTATATATATA [XGTACX_site5470] | 8.91 ± 0.26
TTTTTTTATATTATACGCACTAATATATATATATAT [XGTACX_negctrl_site40] | 9.95 ± 0.3
TTTTTATTAGGACATGCATACAAAATTAAAAAAAAT [TGCATGCA_site258] | 8.87 ± 0.4
ATATATATATTTAAGGTGCGATTTTGTTATATTTAA | 9.22
CTTATTTTATGTTATACACACAAAGAAAAAAAATAA [CACACA_site2165] | 8.65 ± 0.52
AATTATATTAATATATAATAAAATAGGATGTTATTT [XGTACX_negctrl_site309] | 8.26 ± 0.47
GTATATAATTTATGTGCACACACTCCTATTTTTAGC [CACACA_site49] | 9.12 ± 0.11
TTATTAAAATATTAAAGTACAAAAAAAATAAATAAA [XGTACX_site6507] | 8.63 ± 0.38
TTATGTATATTATAAATTAATACATTTAAATTAATA [CACACA_negctrl_site34] | 7.83 ± 0.5
TATTAATTTATTTGTTGTACGTAAATATGCTTGTTT [XGTACX_site6591] | 8.75 ± 0.41
AAAAAAAAAAAAAATTGTACCCAAATATTTTTGTAG [XGTACX_site8303] | 8.34 ± 0.43
TATATGTGATAACACGCACACAAATGTATATAATTT [CACACA_site2593] | 8.56 ± 0.38
ATAAAATAAAAATTCTGTACAGAATTAAAAAAATAT [XGTACX_site6961] | 8.84 ± 0.35
AAAAAAAAAAAACATACACACATTGAACTTTTATAT [CACACA_site3250] | 8.26 ± 0.52
